No constants are given. Whether binding was seen depends on the method and setting. For some of these results: Binding seen in cells or lysates may run through a third protein. Some results given as binding are weak or reduced against the parent protein; the word gives no strength.
How the values were obtained:
[1] = molecular target: chromodomain helicase DNA binding protein 4 (CHD4) (human (endogenous in HEK293T, THP-1 and Kasumi cells)) (UniProt Q14839); test: co-IP; extracts of HEK293T cells transfected with Flag-tagged GFI1 truncation and deletion mutants precipitated with anti CHD4 or anti MTA2 antibodies; western blot with anti-Flag
[2] = molecular target: metastasis-associated 2 (MTA2) (human (endogenous in HEK293T, THP-1 and Kasumi cells)) (UniProt O94776); test: as above
[3] = molecular target: RCOR1 (human (endogenous in HEK293T and Kasumi cells)) (UniProt Q9UKL0); test: co-IP; extracts of HEK293T cells transfected or not with full-length Flag-tagged GFI1, precipitated with anti-MTA2 or anti-RCOR1 antibodies; western blot for MTA2, RCOR1, LSD1 or GFI1
[4] = molecular target: metastasis-associated 2 (MTA2) (human (endogenous in HEK293T, THP-1 and Kasumi cells)) (UniProt O94776); test: as above
[5] = molecular target: GFI1-Flag fusion protein (full-length Flag-tagged GFI1) (UniProt Q99684); test: co-IP; nuclear extracts of HEK293T cells expressing Flag-tagged GFI1 or GFI1B precipitated with anti-Flag agarose; western blot for endogenous proteins
[6] = molecular target: GFI1B-Flag-tagged fusion protein (UniProt Q5VTD9); test: as above
[7] = molecular target: metastasis-associated 2 (MTA2) (human (endogenous in HEK293T, THP-1 and Kasumi cells)) (UniProt O94776); test: co-IP; THP-1 cell extracts, immunoprecipitation with anti GFI1 or anti MTA2 antibodies; western blot for CHD4, MTA2 or GFI1; all endogenous
[8] = molecular target: GFI1 (endogenous) (human (endogenous in THP-1 and Kasumi cells)) (UniProt Q99684); test: as above
[9] = molecular target: GFI1 (endogenous) (human (endogenous in THP-1 and Kasumi cells)) (UniProt Q99684); test: SEC; nuclear extracts of Kasumi cells on Superose 6 10/300 in 50 mM sodium phosphate pH 7, 150 mM NaCl, 10% glycerol, 0.5% NP40, 0.5% Triton-X100; 0.5 ml fractions TCA-precipitated and blotted; GFI1 peaks at around 2 MDa and 0.5 MDa
[10] = molecular target: GFI1-Flag fusion protein (full-length Flag-tagged GFI1) (UniProt Q99684); test: co-IP; immunoprecipitation of extracts from transfected HEK293T cells expressing Flag-tagged GFI1 (Suppl. Fig. 1F); precipitating antibody not given

Amino acid sequences for entries named in this document (tags omitted). A change or cut given only in a name is not applied to a line headed by its entry.
UniProt Q14839: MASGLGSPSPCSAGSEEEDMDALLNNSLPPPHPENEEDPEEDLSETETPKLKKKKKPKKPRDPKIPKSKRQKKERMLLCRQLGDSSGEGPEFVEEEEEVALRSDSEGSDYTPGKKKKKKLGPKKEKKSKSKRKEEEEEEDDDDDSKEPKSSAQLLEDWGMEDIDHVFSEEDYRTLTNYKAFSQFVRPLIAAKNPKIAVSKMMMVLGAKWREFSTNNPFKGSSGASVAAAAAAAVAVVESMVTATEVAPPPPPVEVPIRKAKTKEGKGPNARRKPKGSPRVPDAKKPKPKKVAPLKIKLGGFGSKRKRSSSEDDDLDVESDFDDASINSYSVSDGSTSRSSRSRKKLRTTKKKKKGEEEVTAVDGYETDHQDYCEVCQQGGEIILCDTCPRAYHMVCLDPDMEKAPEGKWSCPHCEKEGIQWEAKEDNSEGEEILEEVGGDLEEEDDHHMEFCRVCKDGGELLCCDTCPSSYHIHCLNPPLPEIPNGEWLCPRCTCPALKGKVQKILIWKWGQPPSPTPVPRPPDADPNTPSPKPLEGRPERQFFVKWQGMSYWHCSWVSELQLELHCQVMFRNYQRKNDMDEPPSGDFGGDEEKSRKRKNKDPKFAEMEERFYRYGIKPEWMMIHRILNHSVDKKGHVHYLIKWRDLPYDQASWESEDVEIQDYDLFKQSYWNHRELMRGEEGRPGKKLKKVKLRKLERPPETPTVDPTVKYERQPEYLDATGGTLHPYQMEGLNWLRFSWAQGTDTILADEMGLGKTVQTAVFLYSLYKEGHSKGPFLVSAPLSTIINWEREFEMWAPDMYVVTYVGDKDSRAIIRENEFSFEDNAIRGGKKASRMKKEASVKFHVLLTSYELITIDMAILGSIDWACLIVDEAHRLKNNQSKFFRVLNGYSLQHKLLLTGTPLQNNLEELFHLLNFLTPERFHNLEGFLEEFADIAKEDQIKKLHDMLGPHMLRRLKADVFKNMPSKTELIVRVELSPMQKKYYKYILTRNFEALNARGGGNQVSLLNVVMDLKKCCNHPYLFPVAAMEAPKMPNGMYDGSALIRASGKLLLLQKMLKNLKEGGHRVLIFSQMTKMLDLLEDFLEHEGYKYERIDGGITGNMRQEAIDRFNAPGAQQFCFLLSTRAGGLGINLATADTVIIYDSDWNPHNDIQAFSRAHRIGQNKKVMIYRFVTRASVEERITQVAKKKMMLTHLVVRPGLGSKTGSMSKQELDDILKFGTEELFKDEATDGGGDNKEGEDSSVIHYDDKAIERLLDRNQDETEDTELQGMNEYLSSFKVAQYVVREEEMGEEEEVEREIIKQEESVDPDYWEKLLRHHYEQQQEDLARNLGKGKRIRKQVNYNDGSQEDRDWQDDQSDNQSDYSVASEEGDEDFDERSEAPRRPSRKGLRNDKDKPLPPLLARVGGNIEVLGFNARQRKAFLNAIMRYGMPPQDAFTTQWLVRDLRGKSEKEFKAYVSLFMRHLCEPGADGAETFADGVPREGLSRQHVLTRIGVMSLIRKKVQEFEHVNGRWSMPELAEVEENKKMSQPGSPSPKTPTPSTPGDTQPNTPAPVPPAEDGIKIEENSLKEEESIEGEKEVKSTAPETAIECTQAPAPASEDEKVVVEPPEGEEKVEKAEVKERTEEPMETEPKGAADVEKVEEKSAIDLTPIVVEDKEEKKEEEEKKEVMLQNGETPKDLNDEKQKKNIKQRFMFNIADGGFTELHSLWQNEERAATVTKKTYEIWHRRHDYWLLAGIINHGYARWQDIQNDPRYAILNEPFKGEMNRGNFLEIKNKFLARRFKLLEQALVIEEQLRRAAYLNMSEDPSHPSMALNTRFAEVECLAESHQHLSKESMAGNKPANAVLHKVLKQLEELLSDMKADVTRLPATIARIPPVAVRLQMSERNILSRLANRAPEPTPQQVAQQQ
UniProt O94776: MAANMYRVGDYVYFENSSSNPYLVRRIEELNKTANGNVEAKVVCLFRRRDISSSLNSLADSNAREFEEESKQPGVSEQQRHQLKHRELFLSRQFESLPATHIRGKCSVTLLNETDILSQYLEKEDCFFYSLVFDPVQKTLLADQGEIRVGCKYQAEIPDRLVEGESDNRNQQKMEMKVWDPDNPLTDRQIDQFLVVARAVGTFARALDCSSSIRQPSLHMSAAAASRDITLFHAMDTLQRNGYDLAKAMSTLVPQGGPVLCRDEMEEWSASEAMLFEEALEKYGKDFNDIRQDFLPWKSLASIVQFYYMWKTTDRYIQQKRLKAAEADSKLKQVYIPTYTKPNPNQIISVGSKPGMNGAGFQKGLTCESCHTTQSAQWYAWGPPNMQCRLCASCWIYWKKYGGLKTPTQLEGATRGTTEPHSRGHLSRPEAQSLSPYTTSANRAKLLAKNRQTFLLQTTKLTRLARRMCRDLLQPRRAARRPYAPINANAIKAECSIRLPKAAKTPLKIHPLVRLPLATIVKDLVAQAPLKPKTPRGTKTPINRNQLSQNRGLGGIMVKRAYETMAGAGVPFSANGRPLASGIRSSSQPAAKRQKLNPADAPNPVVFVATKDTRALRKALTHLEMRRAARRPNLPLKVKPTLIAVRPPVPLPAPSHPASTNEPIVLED
UniProt Q9UKL0: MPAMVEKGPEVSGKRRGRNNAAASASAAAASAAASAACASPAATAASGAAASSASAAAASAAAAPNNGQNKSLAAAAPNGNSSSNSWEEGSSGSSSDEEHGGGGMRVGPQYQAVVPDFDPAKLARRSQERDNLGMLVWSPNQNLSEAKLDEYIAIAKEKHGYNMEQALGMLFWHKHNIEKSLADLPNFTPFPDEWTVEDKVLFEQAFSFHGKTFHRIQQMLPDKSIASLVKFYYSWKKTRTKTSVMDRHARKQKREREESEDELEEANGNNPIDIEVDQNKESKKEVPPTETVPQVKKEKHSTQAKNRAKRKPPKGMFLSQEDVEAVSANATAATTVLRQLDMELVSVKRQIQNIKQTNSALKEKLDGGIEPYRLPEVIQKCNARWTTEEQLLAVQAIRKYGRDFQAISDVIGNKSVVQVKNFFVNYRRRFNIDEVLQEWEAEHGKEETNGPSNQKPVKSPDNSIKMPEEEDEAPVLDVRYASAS
UniProt Q99684: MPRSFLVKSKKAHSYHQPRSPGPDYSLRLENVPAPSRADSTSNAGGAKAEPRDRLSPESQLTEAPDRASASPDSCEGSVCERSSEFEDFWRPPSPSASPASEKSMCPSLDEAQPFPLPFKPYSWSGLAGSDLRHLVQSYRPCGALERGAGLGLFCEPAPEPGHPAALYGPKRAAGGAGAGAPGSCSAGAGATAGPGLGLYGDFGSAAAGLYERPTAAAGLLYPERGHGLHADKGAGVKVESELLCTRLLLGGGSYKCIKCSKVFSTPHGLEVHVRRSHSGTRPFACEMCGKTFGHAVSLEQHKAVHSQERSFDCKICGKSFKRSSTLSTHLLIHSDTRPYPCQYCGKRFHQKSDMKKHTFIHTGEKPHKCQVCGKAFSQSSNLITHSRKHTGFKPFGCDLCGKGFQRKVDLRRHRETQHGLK
UniProt Q5VTD9: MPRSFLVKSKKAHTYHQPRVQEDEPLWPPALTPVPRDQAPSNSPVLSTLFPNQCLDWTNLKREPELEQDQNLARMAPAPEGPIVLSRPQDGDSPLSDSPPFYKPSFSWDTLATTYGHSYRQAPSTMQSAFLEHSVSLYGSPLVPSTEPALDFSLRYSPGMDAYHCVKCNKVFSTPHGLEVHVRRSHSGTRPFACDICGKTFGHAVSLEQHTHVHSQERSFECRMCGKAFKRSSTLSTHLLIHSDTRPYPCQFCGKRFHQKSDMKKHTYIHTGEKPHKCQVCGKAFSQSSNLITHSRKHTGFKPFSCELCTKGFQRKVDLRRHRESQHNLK
UniProt Q13547: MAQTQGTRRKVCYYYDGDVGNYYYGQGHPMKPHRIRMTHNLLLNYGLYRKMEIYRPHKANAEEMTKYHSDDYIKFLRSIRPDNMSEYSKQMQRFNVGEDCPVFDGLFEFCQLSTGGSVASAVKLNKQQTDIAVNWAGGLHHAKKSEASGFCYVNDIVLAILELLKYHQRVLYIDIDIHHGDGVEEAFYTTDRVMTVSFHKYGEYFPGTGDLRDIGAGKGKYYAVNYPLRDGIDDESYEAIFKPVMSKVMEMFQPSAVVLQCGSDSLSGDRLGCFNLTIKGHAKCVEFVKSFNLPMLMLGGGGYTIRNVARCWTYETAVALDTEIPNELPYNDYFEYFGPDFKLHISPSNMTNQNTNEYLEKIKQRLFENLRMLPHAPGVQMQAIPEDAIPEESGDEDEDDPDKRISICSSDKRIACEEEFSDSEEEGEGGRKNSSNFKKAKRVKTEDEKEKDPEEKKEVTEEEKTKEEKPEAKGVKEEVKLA

binding [1] | binding [2] | binding [5] | binding [6] | binding [9] | Substance | binding [7] | further results
binds | binds | – | – | – | GFI1-Flag fusion protein (full-length Flag-tagged GFI1) (from UniProt Q99684 1-422) | – | binding [3]: binds; binding [4]: binds
– | – | binds | binds | – | HDAC1 (from UniProt Q13547 1-482) (enzyme) | – | –
no binding | no binding | – | – | – | truncated GFI1 protein N152–258-Flag (from UniProt Q99684 152-258) (domain or fragment) | – | –

The remaining lines, values behind:

Substance | binding [1] | binding [2] | binding [5] | binding [6] | binding [9] | binding [7] | further results
GFI1 (endogenous) (from UniProt Q99684 1-422) | – | – | – | – | – | binds | –
chromodomain helicase DNA binding protein 4 (CHD4) (from UniProt Q14839 1-1912) | – | – | binds | binds | binds | binds | binding [8]: binds
RCOR1 (from UniProt Q9UKL0 1-485) | – | – | – | – | binds | – | binding [10]: binds

From PMC8639993
